Experimental data taken from PubChem BioAssay AID485297 (National Center for Advancing Translational Sciences (NCATS), 2010).
About 9,100 (2.8%) of roughly 320,000 compounds were called active. This list was built around the results that the source calls inconclusive (neither active nor inactive); the mix of calls is not that of the screen. Calls follow the shape of the dose curve; as a rule, active = well fitted activation curve with a large enough effect; inconclusive = small, poorly fitted or top-dose-only effect; inactive = no such curve, though single readings can be large or run the other way. No potency is given beside an inconclusive call; the fits are too rough.
Potency is read from the fitted curve at half-maximal effect; tags tell the direction and shape of the fitted curve.

Assay: qHTS Assay for Rab9 Promoter Activators; also: nearly all actives have a fitted effect of over 60% in size
Conditions: Huh7 Rab9 promoter-luciferase reporter, luminescence, 24 h; series mostly up to 9.22 µM
Procedure, shortened: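 Measured in stably transfected Huh7 cells bearing a Rab9 promoter–luciferase construct: 24 h compound treatment at 37 °C, followed by luminescence detection.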
For `COc1ccc(C(=O)NCCCCCCNC(=O)c2ccc(OC)cc2)cc1`, the Potency was inconclusive [activator, partial curve].
With `CCCCn1nnc(N(C(=O)c2cccs2)C(=O)c2cccs2)n1` the Potency was inconclusive [activator, partial curve].
In the case of `O=C1c2ccccc2C(=O)N1CCOc1cccc(Br)c1`, the Potency is reported as inconclusive [activator, single point].
With `CN(C)S(=O)(=O)c1cc(NC(=O)c2cc(=O)c3ccccc3o2)ccc1Cl` the Potency was inconclusive [activator, partial curve].
For `CCC(=O)Nc1cccc(NC(=S)NC(=O)c2cccs2)c1`, the Potency was inconclusive [activator, single point].
With `COc1ccc(-c2cc(C(=O)N3CCN(c4ncccn4)CC3)c3ccccc3n2)cc1` the Potency was inconclusive [activator, single point].
With `Cn1ccc(C(=O)Nc2ccc(Br)cc2Br)n1` the Potency was active: 3.16 µM.
For `N#C/C(=C\c1c(N(Cc2ccccc2)Cc2ccccc2)nc2ccccn2c1=O)C(N)=O`, the Potency was “inactive”.
With `CCC(C)NC(=O)c1ccc2c(Cl)c3c(nc2c1)CCC3` (stereo unspecified) the Potency was active: 2.51 µM.
With `Cc1ccccc1OCC(=O)Nc1ccc2c(c1)ncn2C` the Potency was inconclusive [activator, partial curve].
For `C=CCNC(=S)N(CC)c1cccc2ccccc12`, the Potency was “inactive”.
With `CCOC(=O)c1[nH]c2ccc(F)cc2c1NC(=O)CN1CCN(C/C=C/c2ccccc2)CC1` the Potency was “inactive”.
For `C/C(=N\O)c1ccco1`, the Potency was “inactive”.
For `Cc1cccc(C(=O)OC(C)CN2C(C)CCCC2C)c1` (stereo unspecified), the Potency was “inactive”.
For `CC(=O)N1N=C(c2ccc(C)cc2)CC1c1ccco1` (stereo unspecified), the Potency was inconclusive [activator, single point].
In the case of `CCOC(=O)c1sc(=NC(=O)COc2ccccc2)n(C)c1C`, the Potency is reported as active: 3.16 µM.
For `Nc1ccc(NC(=O)NC2CCCCC2)cc1[N+](=O)[O-]`, the Potency was inconclusive [activator, partial curve].
With `Cc1ccccc1/C(N)=N/OC(=O)/C=C/c1ccccc1` the Potency was inconclusive [activator, single point].
With `Cc1ccc(C(=O)N(C)c2nnc(-c3ccncc3)s2)cc1` the Potency was inconclusive [activator, full curve, poor fit].
In the case of `O=C(Nc1nccs1)C(Br)C(Br)c1ccccc1` (stereo unspecified), the Potency is reported as active: 0.501 µM.
For `Cc1onc(C(=O)Nc2sc3c(c2C#N)CCCC3)c1[N+](=O)[O-]`, the Potency was inconclusive [activator, single point].
With `O=C(COc1ccc2ccccc2c1Br)N1CCCC1` the Potency was inconclusive [activator, single point].
In the case of `CC(C)Sc1nc(NCc2ccco2)c2c3c(sc2n1)COC(C)(C)C3`, the Potency is reported as inconclusive [activator, partial curve].
For `Cc1cc2ncn(CCOc3ccccc3)c2cc1C`, the Potency was active: 3.55 µM.
With `Cc1ccsc1C(=O)OCC(=O)c1ccc(OC(F)F)cc1` the Potency was inconclusive [activator, single point].
For `Cc1c(NC(=O)c2cccnc2Cl)c(=O)n(-c2ccccc2)n1C`, the Potency was “inactive”.
With `COc1ccc(NC(=O)/C=C/c2cccc(F)c2)cn1` the Potency was active: 2.24 µM.
For `CCc1ccc(C(=O)CN2C(=O)NC3(CCCCCC3)C2=O)cc1`, the Potency was inconclusive [activator, single point].
With `Oc1ccc(-c2nc3ccccn3c2NCc2ccco2)cc1` the Potency was inconclusive [activator, partial curve].
For `S=C(NCCc1ccccc1)NN=C1CCCCCC1`, the Potency was inconclusive [activator, single point].
In the case of `Cc1cc(C(=O)CN2C(=O)NC(C)(c3cccc(Br)c3)C2=O)c(C)n1Cc1ccco1` (stereo unspecified), the Potency is reported as “inactive”.
For `Clc1ccc2nc(CSc3ccccc3)cn2c1`, the Potency was active: 0.316 µM.
For `O=C(NC1CCCC1)c1cc(-c2ccc(Cl)c(Cl)c2)on1`, the Potency was inconclusive [activator, single point].
For `CCC(=O)Nc1ccc2c(c1)ncn2-c1ccccc1`, the Potency was inconclusive [activator, full curve, poor fit].
For `COc1ccc(-n2c(C)n[nH]c2=O)cc1`, the Potency was “inactive”.
In the case of `Cc1ccc(OCC(=O)N2CCCCC2)c(Br)c1`, the Potency is reported as inconclusive [activator, single point].
With `CC1(C)CC(=O)c2cnc(N3CCc4ccccc4C3)nc2C1` the Potency was inconclusive [activator, partial curve].
With `Cc1cccc(NC(=O)N2CCCCCC2)c1` the Potency was inconclusive [activator, partial curve].
In the case of `COc1ccc(C(=O)Nc2ccnn2C2CCN(C(=O)c3cccnc3)CC2)cc1`, the Potency is reported as inconclusive [activator, single point].
In the case of `Oc1cc(-n2cccn2)c(O)cc1-n1cccn1`, the Potency is reported as “inactive”.
In the case of `Cc1cccc(C(=O)Nc2nnc(SCC(=O)NC3CC3)s2)c1`, the Potency is reported as inconclusive [activator, single point].
With `CCN(C(=O)c1cc2ccccc2oc1=O)c1ccccc1` the Potency was inconclusive [activator, partial curve].
In the case of `Cc1cc(NS(=O)(=O)c2ccc(NC(=O)c3cc(-c4ccccc4Cl)nc4ccccc34)cc2)no1`, the Potency is reported as “inactive”.
With `COCCOC(=O)C1=C(N)OC2=C(C(=O)CCC2)C1c1cccnc1` (stereo unspecified) the Potency was “inactive”.
For `Cc1c2ccccc2nc2c(F)c(N(C)C)c(F)c(F)c12`, the Potency was inconclusive [activator, single point].
In the case of `O=C1CCCC/C1=N\Nc1ccc(OCc2ccccc2)cc1`, the Potency is reported as inconclusive [activator, single point].
For `Cc1ncoc1C(=O)N1CCc2c([nH]c3ccccc23)C1C1CCCCC1` (stereo unspecified), the Potency was inconclusive [activator, partial curve].
With `Cc1nn(-c2ccccc2)c2sc(-c3nnc(SCC(=O)O)o3)cc12` the Potency was inconclusive [activator, single point].
For `COc1ccc(NC(=O)c2cccc(OS(=O)(=O)N(C)C)c2)cc1`, the Potency was active: 2 µM.
For `COC(=O)c1ccc(NC(=O)CSc2ccccc2)cc1`, the Potency was inconclusive [activator, single point].
With `COC(=O)c1ccc(COc2ccc3c(c2)CCC3)o1` the Potency was inconclusive [activator, full curve].
In the case of `CCC(=O)Nc1ccc2oc(-c3cccc(C)c3)nc2c1`, the Potency is reported as active: 0.282 µM.
With `COc1ccc(NC(=O)CSc2nc(N)c3cc4c(nc3n2)CC(C)(C)OC4)cc1` the Potency was inconclusive [activator, single point].
With `Cc1ccccc1-n1c(O)c(/C=N/N2CCCCC2c2cccnc2)c(=O)[nH]c1=O` (stereo unspecified) the Potency was “inactive”.
With `Cc1[nH]c2ccccc2c1C(=O)C(=O)Nc1ccc2c(c1)OCCO2` the Potency was inconclusive [activator, partial curve].
With `O=C(Nc1ccc2c(c1)OCCO2)c1ccco1` the Potency was active: 2.24 µM.
With `Cc1ccc(NC(=O)c2cccc(NC(=O)/C=C/c3ccco3)c2)cc1C` the Potency was active: 3.16 µM.
For `Oc1csc(Cc2nc(-c3ccc(Br)cc3)cs2)n1`, the Potency was active: 3.55 µM.
In the case of `CCOC(=O)C1CCCN(c2ncnc3c2cnn3-c2ccc(Cl)cc2)C1` (stereo unspecified), the Potency is reported as inconclusive [activator, partial curve].
In the case of `O=C(COC(=O)CNC(=O)c1cccc([N+](=O)[O-])c1)Nc1cccc(S(=O)(=O)N2CCCC2)c1`, the Potency is reported as “inactive”.
In the case of `Cc1cc(C)c(C#N)c(SCC(=O)Nc2ccccc2)n1`, the Potency is reported as inconclusive [activator, partial curve].
With `Cc1cc(C)c(C#N)c(SCC(=O)Nc2nonc2N)n1` the Potency was inconclusive [activator, single point].
For `CCOC(=O)N1CCC(=NNC(=O)c2ccc(O)cc2)CC1`, the Potency was “inactive”.
With `Fc1ccc(N/N=C/c2cccnc2)c(F)c1` the Potency was inconclusive [activator, partial curve].
For `CCCc1nc2ccc(NC(C)=O)cc2c(=O)n1Cc1cccc(Cl)c1`, the Potency was “inactive”.
In the case of `O=C(NCc1ccccc1)c1ccc2c(=O)n(CC3CCCO3)c(=S)[nH]c2c1` (stereo unspecified), the Potency is reported as “inactive”.
With `Cc1cccc(NC(=O)Nc2ccc(S(=O)(=O)Nc3onc(C)c3C)cc2)c1` the Potency was inconclusive [activator, single point].
In the case of `Cc1nc2oc(C(=O)c3ccc(Br)cc3)c(N)c2c2c1COC(C)(C)C2`, the Potency is reported as “inactive”.
For `S=c1[nH]nc(-c2cccnc2)o1`, the Potency was “inactive”.
For `O=C(Nc1nc2ccsc2c(=O)s1)C1CCC1`, the Potency was inconclusive [activator, partial curve].
With `COc1ccccc1C(=O)Nc1ccc(NC(=O)c2ccco2)cn1` the Potency was inconclusive [activator, partial curve].
For `Cc1cccc(Nc2ccc(C(=O)N3CCOCC3)cn2)c1`, the Potency was inconclusive [activator, single point].
In the case of `CS(=O)(=O)c1ccc(Cl)c(C(=O)Nc2ccc3nc(N4CCOCC4)sc3c2)c1`, the Potency is reported as “inactive”.
In the case of `COc1cc2c(cc1NC(=O)c1ccccc1F)CCCC2`, the Potency is reported as inconclusive [activator, single point].
With `CCN(CC)C(=O)Cn1cc(C(=O)C(=O)Nc2ccc3c(c2)OCCO3)c2ccccc21` the Potency was inconclusive [activator, partial curve].
For `O=S(=O)(Nc1cccc(-c2ccc(N3CCCCCC3)nn2)c1)c1ccc(F)cc1`, the Potency was inconclusive [activator, single point].
